From ChEMBL document CHEMBL1157539, “Thousands of chemical starting points for antimalarial lead identification” (Nature, 2010)
Whole data set: some 13,000 compounds, median “IFI” near 4, cut for the highest 2% near 17. The list shows a part of the results.

Test: GSK_TCMDC: Inhibition Frequency Index (IFI). The number of non-kinase HTS assays where a compound showed > 50 % inhibition, expressed as a percentage of the number of such assays in which the compound was tested (-0 is zero)
Assay type: functional

Row | SMILES | IFI
1 | Cc1cccc(C)c1CNc1ccnc2cc(Br)ccc12 | 0%
2 | CCCC(C)NC(=O)/C=C/c1ccccc1-c1cccc(OC)c1 (configuration not stated) | 2.94%
3 | CCCCCCCN1CC[C@@H](CCC(O)c2ccnc3ccc(OC)cc23)[C@@H](CC)C1 (some centres not stated) | 9.22%
4 | Cc1ccc2nc(C)cc(Nc3ccccc3O)c2c1 | -0%
5 | O=c1cc(NCCCNCc2[nH]c3cc(Cl)cc(Cl)c3c2Cn2cccn2)[nH]c2ccccc12 | 5%
6 | Cn1nc(-c2ccc(NC(=O)Nc3cc(C(F)(F)F)ccc3F)c(F)c2)c2cnc(NCCCN3CCOCC3)nc21 | 6.57%
7 | Cc1n[nH]c2cc(Nc3ccnc(Nc4ccc(CN5CCOCC5)cc4)n3)ccc12 | 5.36%
8 | CCCCCCCCc1c(C)[nH]c(C)c(Cl)c1=O | 6.57%
9 | CN1CCCC1CCNCc1cccc(-c2cnc(N(C)C3CCCCC3)nc2)c1 (configuration not stated) | 11%
10 | Cc1ccc2c(Cl)c(C(=O)N3CCCc4ccccc43)sc2c1 | 2.1%
11 | Cc1c(CC(=O)N(C)C2CCN(CCCCCNC(=O)/C=C/c3ccc(Cl)c(Cl)c3)CC2)sc2ccc(Cl)cc12 | 7.97%
12 | CC(C)C[C@@H](C(=O)N[C@@H](CCCCNC(=O)OCc1ccccc1)C(=O)Nc1nccs1)[C@H](C)N(O)C=O | 1.41%
13 | Cc1c(CCC#N)c(NCc2ccccc2)n2c(nc3ccccc32)c1C#N | 1.38%
14 | O=C(Nc1ccc(Cl)cc1)Nc1ccc(Cn2ncc(N3CCCNCC3)c(Cl)c2=O)cc1 | 8.82%
15 | CC(C)NC(=N)NN=Cc1ccc(Cl)c(Cl)c1 | 1.48%
16 | CCOC(=O)COc1cccc(CNc2ccc3nc(N)nc(N)c3c2)c1 | 4.2%
17 | O=C(COc1ccccc1)N(Cc1ccc(-c2ccc(CNC3Cc4ccccc4C3)cc2)cc1)C1CCNCC1 | 3.55%
18 | c1cn(-c2ccc(CNc3nccc(Nc4ccc(OCCN5CCOCC5)cc4)n3)cc2)cn1 | -0%
19 | C=CCc1cc(SC)ccc1Oc1ccc(N)cc1 | 2.17%
20 | Cc1ccc(NC(=O)c2ccc(CN3CCCN(CC4CCCCC4)CC3)cc2)cc1 | 9.6%
21 | Cc1cc(NCC(C)C)c2[nH]nc(-c3ccccc3)c2n1 | 2.1%
22 | CN1CCC[C@@H](Oc2cc3c(cc2Br)CCN3C(=O)Nc2ccc(-c3ccncc3)c(Cl)c2)C1 | 7.91%
23 | COc1ccc(NC(=O)/C=C/c2ccccc2Cl)cc1OCCN1CCC(NCc2ccccc2)CC1 | 2.88%

Row | SMILES | IFI
24 | Cc1ccc2nc(N/C(N)=N/C(=O)NC3CCCCC3)nc(C)c2c1 | 3.42%
25 | c1cc(CNc2ncc(-c3ccsc3)c(-c3nccs3)n2)ccn1 | 6.67%
26 | Fc1cc(Cl)ccc1Nc1ccnc2cc(-c3ccc(CN4CCCCC4)o3)ccc12 | 7.3%
27 | COc1cc(C(=O)Nc2cccc(-c3cn4ccc(C)cc4n3)c2)cc(OC)c1OC | 3.13%
28 | c1ccc(-c2cc(NCCCn3ccnc3)nc(-c3cccnc3)n2)cc1 | 2.17%
29 | Cc1cc(F)ccc1C1CCN(CCCCNC(=O)c2ccc(NC(=O)c3ccc(Cl)cc3)cc2)CC1 | 5.31%
30 | CCn1c(-c2nonc2N)nc2cnc(Oc3cccc(NC(=O)c4ccc(OCCN(C(C)C)C(C)C)cc4)c3)cc21 | 5.66%
31 | CCCc1cc(NCC)nc(Nc2ccc(C)cc2)n1 | 7.58%
32 | O=C(Nc1cccc(CN2CCCN(Cc3cccc(O)c3)CC2)c1)c1cc2ccccc2s1 | 8.46%
33 | CC1CCC2(CC1)NC(N)=NC(=N)N2OCCCCCCCCO (configuration not stated) | 4.23%
34 | CN(C)CCCNC(=O)c1ccccc1Sc1ccccc1C#N | 0.73%
35 | Cc1cc(=O)c(-c2ccc(Oc3cccc(OC(F)(F)F)c3)cc2)c(C)[nH]1 | 3.76%
36 | CCCCCCC1(C)N=C(N)N=C(N)C1c1ccc(Cl)c(Cl)c1 (configuration not stated) | 2.78%
37 | Cc1cccc(/C=C/C(=O)NC2CCC(N3CCC(c4ccccc4C)CC3)CC2)c1 (configuration not stated) | 8.62%
38 | Cn1cccc1C(=O)C(=O)Nc1cccc(-c2ccc(-c3nc4cc(C(F)(F)F)ccc4[nH]3)cc2)c1 | 4.59%
39 | COc1ccc(F)cc1-c1ccc(C(=O)N2CCCN(c3ccc(C#N)cn3)CC2)cc1 | 5.41%
40 | CCCN(CC)CCOC(=O)c1ccccc1 | -0%
41 | N#Cc1ccc(N(CCOc2ccc3c(c2)CCC(=O)N3)Cc2ccccc2C(F)(F)F)cc1C(F)(F)F | 3.08%
42 | Clc1ccc2c(N3CCCNCC3)ccnc2c1 | 2.08%
43 | Cc1ccc2nc(-c3ccc(/C=C/C(=O)NC4CCN(Cc5ccccc5)CC4)cc3)[nH]c2c1C | 1.48%
44 | Cc1cc(NCC2CCN(CC3CCCCC3)C2)nc(Nc2ccc(Cl)cc2)n1 (configuration not stated) | 2.63%
45 | CCCC(C)Nc1nc(C)cc(N[C@@H](CC(C)C)C(=O)NC2CCCC2)n1 (some centres not stated) | 4.76%
46 | O=C(NCCCCN1CCC(c2ccc3c(c2OCCO)CCCC3)CC1)c1ccc(-c2ccc(C(F)(F)F)cc2)cc1 | 7.55%

Row | SMILES | IFI
47 | CN(Cc1cccc(F)c1)C1CCN(c2cc(NC(=O)c3ccc(F)cc3)ccn2)CC1 | -0%
48 | CC(C)c1sc(N2CCN(C)CC2)nc1C(=O)NCCc1ccc(Br)cc1 | 6.12%
49 | Cc1ccccc1C1CCN(C2CCC(NC(=O)c3cc(-c4ccccc4)oc3C)CC2)CC1 (configuration not stated) | 10.5%
50 | CCN(CC)/C(=N/C(=N)NCc1ccc(Cl)cc1)NCCCCCCN/C(=N\C(=N)NCc1ccc(Cl)cc1)N(CC)CC | 15.1%
51 | CCCC(=O)Nc1ccc(OCCN(Cc2ccccc2OC(F)(F)F)c2ccc(C(F)(F)F)c(C#N)c2)cc1 | -0%
52 | COc1ccc2nc(-c3cc(-c4ccc(NC(=O)CN5CCOCC5)cc4)cnc3N)[nH]c2c1 | 10.5%
53 | COc1ccc(CNC2CCN(C)CC2)cc1-c1ccc(S(=O)(=O)NCc2ccccc2)cc1 | 11.4%
54 | Oc1ccc2c(c1CNC1CCCCC1)CCCC2 | 0.71%
55 | COc1cc(C(=O)N2CCC(CCN3CCC4(CC3)CN(S(C)(=O)=O)c3ccccc34)CC2Cc2ccc(Cl)c(Cl)c2)cc(OC)c1OC (configuration not stated) | 5.34%
56 | CCn1c(-c2nonc2N)nc2c(-c3cccc(NC(=O)Nc4cccc(C#N)c4)c3)ncc(OCCCN)c21 | 16.7%
57 | O=C(Nc1cc(F)cc(F)c1)N1CCOC(CCN2CCC3(CCc4ccccc43)CC2)(c2ccc(Cl)c(Cl)c2)C1 (configuration not stated) | 8.22%
58 | CC(C)CNCc1cccc(-c2cccc(CN(CCCN3CCN(C)CC3)C(=O)Nc3ccccc3)c2)c1 | 3.65%
59 | CC(=O)Oc1c(Cl)c(C)nc(C)c1-c1ccc(Oc2ccc(OC(F)(F)F)cc2)cc1 | 6.35%
60 | O=[N+]([O-])c1cccc(NC(=S)N2CCCN(Cc3ccc(F)cc3F)CC2)c1 | 2.24%
61 | Fc1ccccc1-c1cc(Nc2ccncc2)nc(-c2cccnc2)n1 | 10.4%
62 | CN1CCCCC1CCc1cc(C(=O)Nc2ccc(-c3ccc(O)cc3)cc2)ccc1O (configuration not stated) | 1.46%
63 | Cc1cc(-c2nc3ccc(N4CCN(C)CC4)cc3[nH]2)nn1Cc1cc(Cl)ccc1OCC(C)C | 17.1%
64 | O=C(NCC1CC1)C1CCN(C(c2ccccc2)c2cc(F)cc(F)c2)CC1 (configuration not stated) | 2.07%
65 | CC(C)(C)c1ccc(NC(=O)c2cccc(CN3CCCN(Cc4cccc(Cl)c4)CC3)c2)cc1 | 7.86%
66 | CCOC(=O)C(C)(C)Oc1ccc(C(=C2CC(C)(C)CC(C)(C)C2)c2ccc(O)cc2)cc1 | 2.4%
67 | O=C(Nc1ccc(Cl)cc1)Nc1ccc2nonc2c1 | 12.8%
68 | NC(=O)c1cccc(C(=O)Nc2ccc(-c3cccc(-c4nc5cc(C(F)(F)F)ccc5[nH]4)c3)cc2)c1 | 3.81%
69 | CCCCSc1nc2c(c(=O)n1Cc1ccco1)C1(CCCCC1)Cc1ccccc1-2 | 4.35%

Row | SMILES | IFI
70 | Cc1cc(OCCCN2CCC(NS(=O)(=O)c3ccc(Cl)c(Cl)c3)CC2)c2ccccc2n1 | 5.36%
71 | CC(=O)c1cccc(NC(=O)C2c3ccccc3C(=O)N(CC(C)C)C2c2cccs2)c1 (configuration not stated) | 2.27%
72 | Cc1cc(C(=O)CN2C(=O)NC(C)(c3ccc4ccccc4c3)C2=O)c(C)n1Cc1ccco1 (configuration not stated) | 3.64%
73 | Cc1cccc2nc(-c3cccc(-c4cccc(NC(=O)NCc5cccc(F)c5)c4)c3)[nH]c12 | 7.92%
74 | CCn1c(C)cc(C=C2SC(=Nc3ccccc3)NC2=O)c1C | 6.67%
75 | COc1ccc2nccc([C@@H](O)CN3CCC(c4cc(-c5ccc(Cl)cc5)[nH]n4)CC3)c2n1 | 4.58%
76 | COc1cc(C(=O)N2CCOC(CCN3CCC(Cc4ccc(F)cc4)CC3)(c3ccc(Cl)c(Cl)c3)C2)cc(OC)c1OC (configuration not stated) | 9.4%
77 | N#CCCN1CCN(Cc2cccc(-c3ccc(-c4nc5ccccc5[nH]4)s3)c2)CC1 | 1.41%
78 | OC(CNc1ccnc(Nc2cccc(Cl)c2)n1)c1ccccc1C(F)(F)F (configuration not stated) | 20.4%
79 | COc1ccc(S(=O)(=O)Nc2ccc(C(=O)NCc3ccc(C(F)(F)F)cc3)cc2)cc1N1CCN(CC2CC2)CC1 | 20%
80 | CC(C)COc1ccc(Cl)cc1Cc1nc(-c2nc3ccc(N4CCN(C)CC4)nc3[nH]2)cs1 | 13.6%
81 | CC(C)N1CCN(c2ccc(OCCCN3CCN(c4cccc(Cl)c4Cl)CC3)c(C(F)(F)F)c2)CC1 | 17.1%
82 | OC1CCCN(Cc2cccc(-c3ccc(-c4nc5cc(C(F)(F)F)ccc5[nH]4)cc3)c2)C1 (configuration not stated) | 4.23%
83 | OCc1ccc2nc3c(cc2c1)-c1cccc2cccc-3c12 | 2.94%
84 | CCCNCc1ccc(-c2ccc(CN(C(=O)c3nn(-c4ccccc4)nc3C)C(C)CN(C)C)cc2)nc1 (configuration not stated) | 2.24%
85 | CN(C)Cc1cc2c(O)c(Cc3ccccc3)ccc2o1 | 0.68%
86 | CN1CCN(CCCN(Cc2ccc(-c3cccc(CNCc4ccc5c(c4)OCO5)c3)cc2)C(=O)NC2CCCCC2)CC1 | 9.7%
87 | Cc1cc(Nc2ccccc2)nc(Nc2ccccc2C)n1 | 2.13%
88 | Cc1cc(N[C@@H](Cc2ccccc2)C(=O)NC2CCCC2)nc(NCC2CCCCC2)n1 | 26.2%
89 | COc1ccc(CCNCCCCCCNCCc2cccc([N+](=O)[O-])c2)cc1OC | -0%
90 | Cc1ccc(Nc2ccnc3cc(-c4nccs4)ccc23)cc1C(O)c1ccccc1 (configuration not stated) | 7.04%
91 | c1cc(-c2ccc(CN3CCN(c4ccncc4)CC3)cc2)cc(-c2nc3ccccc3[nH]2)c1 | 7.62%
92 | Cc1c(Cc2ccc(F)cc2)c(Cl)nc2nc(N)nc(N)c12 | 2.92%
